Reference: PubChem BioAssay AID1768 (National Center for Advancing Translational Sciences (NCATS), 2009)
Among all 270,000 compounds or so, about 620 (0.23%) were called active. Inconclusive means that the source gave no clear call. Such entries were picked first, then a sample of the others. The call rests on the fitted dose curve; in most records, active means well fitted inhibition curve with a large enough effect in the polarisation, with a control signal flat (not every such curve was filed as active); inconclusive means small, poorly fitted or top-dose-only effect, or effect the other way, or a change in a side signal; inactive means no such curve, though single readings can be large or run the other way; the % refers to the polarisation. Potencies beside an inconclusive call are fits to weak or partial responses and may not hold up. “Side channel” marks fits to a control or component signal instead of the main read-out.

Target: Menin (Homo sapiens) (UniProt O00255)
Assay: qHTS Assay for Inhibitors Targeting the Menin-MLL Interaction in MLL Related Leukemias: Competition With Texas Red Labeled MLL-derived Mutant Peptide; on FP activity change, negative = inhibition: % of control where 0% means no effect
Conditions: fluorescence polarization; FP activity change, negative = inhibition: at 61.6 µM (top of the series)
Potency means the concentration at half of the fitted maximal effect; tags describe the fitted curve by direction and shape or compound fluorescence and quenching.

Chain of UniProt O00255 (O00255 whole entry, looked up): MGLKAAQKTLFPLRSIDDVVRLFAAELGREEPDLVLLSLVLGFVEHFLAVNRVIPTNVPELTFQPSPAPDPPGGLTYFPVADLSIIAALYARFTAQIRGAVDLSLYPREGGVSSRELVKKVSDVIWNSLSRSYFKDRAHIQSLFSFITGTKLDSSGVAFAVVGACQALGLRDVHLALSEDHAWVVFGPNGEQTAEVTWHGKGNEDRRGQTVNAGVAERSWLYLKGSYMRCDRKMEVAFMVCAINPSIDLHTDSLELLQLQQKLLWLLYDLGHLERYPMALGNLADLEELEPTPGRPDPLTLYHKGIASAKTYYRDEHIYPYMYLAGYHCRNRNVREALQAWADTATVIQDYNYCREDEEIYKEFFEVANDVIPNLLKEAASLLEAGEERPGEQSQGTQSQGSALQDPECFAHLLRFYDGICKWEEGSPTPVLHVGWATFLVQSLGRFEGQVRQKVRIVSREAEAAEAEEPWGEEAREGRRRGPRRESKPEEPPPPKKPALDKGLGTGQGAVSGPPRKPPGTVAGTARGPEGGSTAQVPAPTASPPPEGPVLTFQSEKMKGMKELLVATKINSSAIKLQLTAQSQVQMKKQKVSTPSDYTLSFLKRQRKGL

Potency, inconclusive:
Cc1ccc(CSc2nnc3c(n2)OC2(Nc4ccccc4-3)C(=O)Nc3ccc(F)cc32)cc1 (stereo not drawn) 31.6 µM [quencher, side channel, single point]
Cc1ccc(-n2ncc3c2CCCC3NC(=O)c2ccoc2)cc1C (stereo not drawn) 17.8 µM [fluorescent, side channel, partial curve]
N#C/C(=C\c1ccc(O)c(O)c1)S(=O)(=O)c1ccccc1 39.8 µM [quencher, side channel, single point]
CCOc1cccc(C(=O)NC(=S)Nc2cccc(NC(=O)c3ccccc3Cl)c2)c1 12.6 µM [inhibitor, partial curve, poor fit]
NS(=O)(=O)c1ccc(Nc2nc3ccccc3nc2NS(=O)(=O)c2cccc([N+](=O)[O-])c2)cc1 10 µM [quencher, side channel, partial curve]
C=C(C)CSc1nnc2n(C)c(=O)c3c4c(sc3n12)CCC4 28.2 µM [fluorescent, side channel, single point]
C=CCOc1nc2c(c(=O)n(C)c(=O)n2C)n1Cc1c(Cl)cccc1Cl 1.12 µM [inhibitor, full curve, poor fit]
CCOc1cc(CNC(C)(C)CO)cc(Br)c1OCc1ccc(Cl)cc1Cl 1.41 µM [fluorescent, side channel, full curve]
COc1ccccc1NS(=O)(=O)c1cc(N/C(=N\S(=O)(=O)c2ccccc2)c2ccc(F)cc2)ccc1Cl 8.91 µM [inhibitor, full curve, poor fit]
OCC(O)/C=N/Nc1nc(Nc2ccccc2)nc(Nc2ccccc2)n1 (stereo not drawn) 22.4 µM [quencher, side channel, single point]
Cc1ccc(Oc2cnc3ccccc3n2)cc1 35.5 µM [inhibitor, single point]
Cc1ccc(-n2c(=S)sc3c(=O)n(-c4ccccc4F)c(SCC(=O)O)nc32)cc1C 28.2 µM [quencher, side channel, partial curve]
O=C(C1=C[C@H](c2ccc(C(F)(F)F)cc2)C[C@H](OCc2ccc(CO)cc2)O1)N1CCN(Cc2ccc3c(c2)OCO3)CC1 2.24 µM [fluorescent, side channel, full curve]
COc1ccc2nc(N=Nc3ccc(N(C)C)cc3)sc2c1 7.94 µM [quencher, side channel, full curve]
O=C(N/N=C/c1cc([N+](=O)[O-])ccc1O)c1cccc2ccccc12 8.91 µM [quencher, side channel, partial curve]
CCc1ccc(CN(C)Cc2nc(Cc3cccc(C(F)(F)F)c3)no2)nc1 8.91 µM [fluorescent, side channel, partial curve, poor fit]
O=C(C1=C(O)C(=O)N(CC2CCCO2)C1c1ccccc1Cl)c1ccco1 (stereo not drawn) 1 µM [inhibitor, full curve, poor fit]
Cc1cc(C)c(S(=O)(=O)NCc2ccc3c(c2)cc(C)n3C)c(C)c1 31.6 µM [fluorescent, side channel, single point]
O=C(O)CCN1C(=O)/C(=C\c2cccc(OCc3ccccc3)c2)SC1=S 25.1 µM [quencher, side channel, partial curve]
Nn1c(SCC(=O)N2CCOCC2)nnc1-c1ccccc1Cl 25.1 µM [quencher, side channel, single point]
O=C1CC[C@@H](OCc2ccccc2)CCN1CC[C@H](Sc1ccccc1)c1ccccc1 7.94 µM [fluorescent, side channel, full curve, poor fit]
CCOC(=O)c1cccc(NC(=O)c2cc3ccccc3o2)c1 35.5 µM [quencher, side channel, single point]
CCCc1cc(=O)n2[nH]c(NC(=O)c3ccco3)nc2n1 39.8 µM [inhibitor, single point]
CCCC(=O)Nc1ccc(C(=O)NNC(=O)c2cccc([N+](=O)[O-])c2)cc1 25.1 µM [quencher, side channel, partial curve]
CS(=O)c1ccccc1-c1nc(-c2cccc(Cl)c2)no1 (stereo not drawn) 15.8 µM [fluorescent, side channel, partial curve]
O=C(/C=C/c1ccc(Cl)c([N+](=O)[O-])c1)Nc1cccnc1 20 µM [quencher, side channel, partial curve]
O=S(=O)(c1ccccc1)N(CC(O)Cn1c2ccccc2c2ccccc21)c1ccccc1 (stereo not drawn) 17.8 µM [inhibitor, partial curve]
Cn1c2c(c(=O)[nH]c1=O)C(c1ccc(O)cc1)C1=C(N2)c2ccccc2C1=O (stereo not drawn) 28.2 µM [quencher, side channel, single point]
O=C(Nc1ccccc1)Nc1cccc2nsnc12 14.1 µM [quencher, side channel, partial curve]
CC(C)CN(c1ccccc1)S(=O)(=O)c1nnc(NC(=O)c2ccco2)s1 8.91 µM [quencher, side channel, full curve, poor fit]
Cc1cc(C)c2c(c1)[C@@H]1C=CC[C@@H]1[C@H](c1ccc(S(=O)(=O)N3CCOCC3)cc1)N2 12.6 µM [quencher, side channel, partial curve]
COc1ccc([N+](=O)[O-])cc1Nc1c2ccccc2nc2ccccc12 7.94 µM [quencher, side channel, partial curve]
O=C(CCCC(=O)Nc1cccc(Br)c1)N/N=C/c1cc([N+](=O)[O-])ccc1O 17.8 µM [quencher, side channel, partial curve]
Cc1ccc(N(CC(=O)NCCc2ccccc2)C(=O)CCC(=O)Nc2cc(C)ccn2)cc1 12.6 µM [fluorescent, side channel, partial curve]
Cc1cccc(/C=N\NC(=O)c2ccc(Cl)cc2)c1O 12.6 µM [quencher, side channel, partial curve]
CCO[C@@H]1OC(C(=O)NCc2ccccc2)=C[C@H](c2ccc(C(F)(F)F)cc2)[C@H]1CCCO 10 µM [fluorescent, side channel, partial curve]
O=Cc1sc(Nc2ccccc2)nc1Cl 39.8 µM [quencher, side channel, single point]
O=C(c1ccc(COc2c(F)c(F)cc(F)c2F)o1)N1CCN(c2ccccc2)CC1 2.82 µM [inhibitor, full curve, poor fit]
CCCCNc1nc(N)nc(-c2cc(Cl)ccc2O)n1 28.2 µM [quencher, side channel, partial curve]
CCOc1ccc(C(=O)Nc2cccc([N+](=O)[O-])c2)cc1Br 6.31 µM [quencher, side channel, partial curve]
Cc1onc(-c2c(F)cccc2Cl)c1C(=O)Nc1cccc2nsnc12 2.51 µM [inhibitor, full curve, poor fit]
COc1ccc(/C=N/NC(=O)c2ccccc2O)cc1CSc1ccccn1 25.1 µM [quencher, side channel, single point]
Cc1ccc(NC(=O)Cc2c(C(=O)O)n(C)c3ccccc23)cc1F 31.6 µM [quencher, side channel, single point]
O=C(Nc1ncc(Cc2ccccc2Cl)s1)c1ccc(-c2cccc([N+](=O)[O-])c2)o1 10 µM [quencher, side channel, partial curve]
CC(C)CCNC(=O)CN(CC1CCCO1)C(=O)CCC(=O)Nc1nccs1 (stereo not drawn) 28.2 µM [fluorescent, side channel, partial curve]
COc1cc(NC(=O)N2c3ccccc3Sc3ccccc32)c(C(=O)O)cc1OC 22.4 µM [quencher, side channel, single point]
Cc1ccc(CNC(=O)C(c2ccccc2)c2ccccc2)cc1 39.8 µM [fluorescent, side channel, single point]

FP activity change, negative = inhibition, inactive:
CCOC(=O)N1CCC(n2c(SCC(=O)Nc3nccs3)nc3ccsc3c2=O)CC1 23.9%
CCOc1ccc2oc(-c3ccccc3)c(C(=O)N3CCN(CCO)CC3)c2c1 3.57%
O=C(NCC(O)CO)c1ccc2[nH]c3ccccc3c2c1 (stereo not drawn) 17.4%
Cn1cccc1/C=C1\SC(=S)N(NC(=O)c2ccccc2Cl)C1=O 18.6%
CC(CCc1ccccc1)NC(=O)CN1CCN(c2ccc(O)cc2)CC1 (stereo not drawn) -17.4%
O=C(N/N=C/c1ccccn1)c1ccncc1 -7.22%
Cc1cccc(-c2cc3nc4c(c(NCc5ccco5)n3n2)CCCC4)c1 5.1%
COc1ccc(N2C(=O)C(CC(N)=O)N(NC(=O)c3cccc(OC)c3)C2=S)cc1 (stereo not drawn) -0.209%
COc1ccc(NC(=O)CSCc2cc(=O)n3c(C)csc3n2)cc1 1.69%
Oc1ccc2ccccc2c1C=Nc1ccc(Cl)cn1 24.3%
CC(C)CCOc1ccc(N)cc1 -17.3%
